In PubChem BioAssay (NCI):
Where “and” joins values, the source holds several entries; their conditions need not be identical. Equal values may be shown once.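 Five concentrations, 48 hours, 96-well plates. GI50: concentration for 50% inhibition of growth. The concentration for full growth arrest is given as TGI.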 Square brackets hold non-standard residues; d marks the D form. Peptide text beside a SMILES is read from it. * marks the point of attachment. ξ: configuration not given here. dTle = CC(C)(C)[C@@H](N)C(=O)O; ξLac(3-iPr) = CC(C)CC(O)C(=O)O; NMeV = CN[CH](C(=O)O)C(C)C; 4Abz = Nc1ccc(C(=O)O)cc1; NMeA = CN[CH](C)C(=O)O; βAla = NCCC(=O)O; NHOH = ON*

Tested on: NCI-H322M lung
Assay: NCI-60 cell line screen, 48 h

Row | Structure (SMILES) | TGI [µM] | GI50
1 | Cc1ccnc2[nH]c(-c3ccc(F)cc3)cc(=O)c12 | > 100 | 
2 | CN1C(=O)C(O)CC1c1ccccc1C(F)(F)F (stereo unspecified) | > 100 | 
3 | Oc1cc(N2CCCC2)ccc1/C=N/N1C(=S)N(c2ccccc2)C(=Nc2ccccc2)C1=Nc1ccccc1 | > 100 | 
4 | CC(=O)c1ccc2c(c1)CC1(C2)Cc2ccc3c(c2C1=O)CCC3 (stereo unspecified) | > 100 | 
5 | CC(=O)n1cc(OP(=O)(Oc2ccccc2)Oc2ccccc2)c2ccccc21 | > 100 | 
6 | CCc1ccc(C(=Nc2ccc(N(C)C(=O)CN3CCN(C)CC3)cc2)c2c(O)[nH]c3ccc(C(=O)OC)cc23)cc1 | 2.03 | 0.66 µM
7 | Cc1ccc(OCC2OC(n3cnc4c(Cl)nc(Cl)nc43)CC2Oc2ccc(C)cc2)cc1 (stereo unspecified) | 11 | 
8 | Cc1ccc(NS(=O)(=O)c2cccc(C#N)c2)c2[nH]cc(C#N)c12 | > 100 | 32.9 µM and 34.5 µM
9 | CC1CN(c2cc3c(cc2F)c(=O)c(C(=O)O)cn3-c2ccc(F)cn2)CC(C)N1 (stereo unspecified) | > 100 | 
10 | OCc1cc2ccncc2c2c1[nH]c1ccccc12 | 34.5 | 
11 | C/C=C1\CN2CCc3c([nH]c4ccccc34)C2C=C1CCO (stereo unspecified) | > 340 | 
12 | CC1=C(O)/C(=C/C(C)CCC/C(C)=C/C=C/C(C)CCCc2ccoc2)OC1=O (stereo unspecified) | 74.6 | 
13 | CCOC(=O)c1cc(Br)c(-c2cc(C)no2)[nH]1 | > 100 | 
14 | C=CCN1/C(=C2\SC(=S)N(c3ccc(C)cc3)C2=O)Sc2c1nc[nH]c2=O | > 100 | 
15 | Fc1cccc(-n2ccc(-c3ccccc3)nc2=S)c1 | 36.3 | 18.8 µM
16 | O=C(O)c1c(=O)cccc2ssc12 | 7.53 | 2.49 µM
17 | O=C(NO)[C@@H](Cc1ccccc1)NS(=O)(=O)c1ccc(-c2ccccc2)cc1 | > 25 | 11.4 µM
18 | CSC1=NNC(SC)=NN1 | 0.322 | 
19 | CCC(C)C1NC(=O)C2CCCN2C(=O)C(CC(C)C)OC(=O)CCNC(=O)C(C)N(C)C(=O)C(C(C)C)N(C)C1=O (stereo unspecified) (cyclo([ξLac(3-iPr)]PI[NMeV][NMeA][βAla]); configuration not given here) | > 81.2 | 
20 | O=c1[nH]c(=O)n(C2CC(O)C(CO)O2)c2nc3ccc4cc5ccccc5cc4c3nc12 (stereo unspecified) | > 100 | 
21 | CC(C)(C)c1ccc(OCCOCCOc2ccc(C(C)(C)C)cc2S(=O)(=O)Nc2ccc([N+](=O)[O-])cc2)c(S(=O)(=O)Nc2ccc([N+](=O)[O-])cc2)c1 | > 100 | 
22 | O=C(c1ccccc1)C1C(c2ccccc2)N1S(=O)(=O)c1ccccc1 (stereo unspecified) | > 100 | 
23 | COC(=O)C1=C(C)NC(C)=C(C(=O)OC)C1c1ccc(N=O)cc1 | > 100 | 
24 | O=C1C2CCN(CC2)C1(CO)CO | > 94.5 | 
25 | CCOC(OCC)N1C(=O)C2(C(OCC)OCC)CC3C(OC(=O)N3N)c3cccc1c32 (stereo unspecified) | > 100 | 

Row | Structure (SMILES) | TGI [µM] | GI50
26 | CN(C)CCNc1c2ccccc2nc2oc3ccccc3c12 | 72.7 | 11 µM
27 | C=C1C(OC(=O)/C=C/c2ccccc2)CC(OC(C)=O)C2(C)C1CC1CC(OC(C)=O)C(C)=C(C(OC(C)=O)C2OC(C)=O)C1(C)C (stereo unspecified) | > 100 | 
28 | Cn1c2ccccc2c(=O)c2cccc(C(=O)NCC(=O)O)c21 | > 100 | 
29 | C/C=C(\CCOS(=O)(=O)c1ccc(C)cc1)[Si](C)(C)C | > 100 | 
30 | O=C1NNC2NC(=O)C3(NN2C1=O)c1ccccc1-c1ccccc13 (stereo unspecified) | > 100 | 
31 | CC(=O)O[C@H]1[C@@H]2OC(=O)C(CSc3ccccc3)[C@@H]2C[C@H]2O[C@]2(C)CC/C=C(\C)CCC[C@@H]1C (stereo partly specified) | 49.1 | 8.22 µM
32 | N#Cc1cc(S(=O)(=O)Nc2nnc(-c3ccccc3)c(-c3ccccc3)n2)c(SCc2ccccc2)cc1Cl | 39 | 20.2 µM
33 | NS(=O)(=O)c1ccc(N(/C=C/C(=O)C(F)(F)F)Cc2ccc(Cl)cc2)cc1 | 58.7 | 19 µM
34 | COc1ccc(N=NC(=Nc2ccc(Cl)cc2)c2ccc(N(CCC#N)CCC#N)cc2)cc1 | > 100 | 
35 | CCOC(=O)c1cnc2sc3ccc4ccccc4c3n2c1=O | > 100 | 
36 | NC1=NN(c2ccccc2)C(=O)C1C(=O)C(=O)Nc1nccs1 (stereo unspecified) | > 100 | 
37 | COC(=O)[C@H]1COC(=O)N1 | > 100 | 
38 | C=C1CC2CC(O)CC(C1)C2 (stereo unspecified) | > 100 | 
39 | OC(c1ccc2c(c1)OCO2)c1ccc2c(c1)OCO2 | > 100 | 
40 | COC(=O)C(C(=O)C(=O)Nc1cccc([N+](=O)[O-])c1)c1nc2ccc([N+](=O)[O-])cc2[nH]c1=O (stereo unspecified) | > 100 | 
41 | CN(C)c1ccc(/C=C2\N=C(N/N=C/c3ccccc3O)NC2=O)cc1 | > 100 | 
42 | Cc1cc2c(C(N)=O)c(N)n(-c3c(C)ccc(O)c3C)c2nc1C | 96.6 | 9.26 µM
43 | CC1(c2ccc(Cl)s2)CC(c2ccc(Cl)s2)=C(C#N)C(=C(C#N)C#N)N1 (stereo unspecified) | 29.4 | 
44 | COc1cc(C(=O)CC2OC(=O)C(Cl)=C2Cl)ccc1Cl (stereo unspecified) | > 100 | 
45 | O=C(N/N=C/c1ccc([N+](=O)[O-])cc1)Nc1ccc(Br)cc1 | > 100 | 
46 | CCn1c(-c2nonc2N)nc2c(C#CC(C)(C)O)ncc(OC[C@H]3CCCNC3)c21 | 66.1 | 19.2 µM
47 | CC(C)=CCC/C(C)=C\CCC1(C)OC(=O)C2CC21 (stereo unspecified) | > 100 | 
48 | CCCCCCCCCCCCCCCCOP(=O)(O)OCC(NC(C)=O)C(=O)O (stereo unspecified) | > 100 | 
49 | CCS(=O)(=O)CCn1c(=O)c2c(ncn2C)n(C)c1=O | > 100 | 
50 | O=NNc1ccc(Sc2ccc(NN=O)cn2)nc1 | > 100 | 

Row | Structure (SMILES) | TGI [µM] | GI50
51 | CO/N=C(\COc1ccc2oc(-c3ccccc3)cc(=O)c2c1)c1ccc(OC)cc1 | > 100 | 34.7 µM
52 | c1ccc(C(=NCCC2CNc3ccccc32)c2ccccc2)cc1 (stereo unspecified) | > 100 | 
53 | O=C1c2ccccc2C(=O)c2c(Nc3cc4c5c(ccc6c7ccc8c9c(cc(Nc%10cccc%11c%10C(=O)c%10ccccc%10C%11=O)c(c3c56)c97)-c3ccccc3C8=O)C(=O)c3ccccc3-4)cccc21 | > 100 | 
54 | Cc1cn2c(/C=N/N=C(N)N)c(-c3ccccn3)nc2s1 | 32.6 | 16.8 µM
55 | O=c1[nH]nc(-c2ccccc2)n1/N=C/c1ccccc1Cl | > 100 | 
56 | O=C(O)CCC(N=NNc1ccc(-c2nc3ccccc3[nH]2)cc1)C(=O)O (stereo unspecified) | > 100 | 
57 | CC(=[N-])N1CCC[C@@H](Nc2c3ccccc3nc3ccccc23)C1.[Cl][Pt].[NH-]CCC[NH-] | > 42.9 | 1.25 µM
58 | O=S1(=O)OCCOS(=O)(=O)C1Cc1cccc2ccccc12 | 47.4 | 
59 | O=C(CCc1ccccc1)n1cccc1CO | > 100 | 
60 | Oc1c(Br)cc(/C=C/c2cccc(/C=C/c3cc(Br)c(O)c(Br)c3)n2)cc1Br | 26.8 | 
61 | Clc1ccc(OCc2nnc3sc(-c4ccc(-c5ccc(Cl)cc5Cl)o4)nn23)cc1 | > 100 | 
62 | CSc1nc2c(c(N3CCOCC3)n1)C(O)n1c(nc3ccccc31)S2 (stereo unspecified) | > 100 | 
63 | ON[C@H]1C[C@@H](n2cnc3c(NC4CC4)ncnc32)[C@H](O)[C@@H]1O | > 100 | 
64 | Cc1ccc(C2COc3cc(O)c(O)cc3C2)cc1 (stereo unspecified) | 187 | 
65 | CN(C)c1nncc2n[nH]nc12 | > 100 | 
66 | CN(C)CCNC(=O)Cn1cnc2cccc([N+](=O)[O-])c2c1=O | > 100 | 
67 | Oc1ccc(C2c3ccccc3Oc3ccccc32)c2cccnc12 | > 100 | 1.87 µM
68 | CC(=O)O[C@@]12CO[C@@H]1C[C@@H](O)[C@@]1(C)C(=O)[C@H](O)C3=C(C)[C@@H](OC(=O)[C@H](O)[C@@H](NC(=O)c4ccccc4)c4ccccc4)C[C@@](O)([C@@H](OC(=O)c4ccccc4)C12)C3(C)C (stereo partly specified) | > 100 | 
69 | CN(CC(=O)Nc1nc2ccccc2[nH]1)S(=O)(=O)c1ccc(Cl)cc1 | > 100 | > 100 µM
70 | O=C1/C(=C/c2ccc(Oc3ccccc3)cc2)N=C(c2ccccc2)N1c1ccc(S(=O)(=O)Nc2nccs2)cc1 | > 100 | 
71 | CC(C)C[C@H](NC(=O)[C@H](Cc1ccc(F)cc1)NC(=O)c1ccccn1)B(O)O | 0.232 | 
72 | CC(C)Oc1cccc(N2C(=NCCc3c[nH]c4ccccc34)Nc3ccncc3S2(=O)=O)c1 | > 100 | 
73 | NC(=O)SCCC(N)C(=O)O (stereo unspecified) | > 100 | 
74 | CCN(CC)C(=S)SCN1C(=O)c2ccccc2S1(=O)=O | > 100 | > 76.8 µM
75 | O=C1C=CC(=O)c2c(O)c(Br)c(Br)c(O)c21 | 35.6 | 

Row | Structure (SMILES) | TGI [µM] | GI50
76 | O=C(NNC(=S)NCc1ccccc1)c1csc(NC(=S)NC2CCCCC2)n1 | > 100 | 
77 | O=C(N/N=C1\C(=O)N(c2nccs2)C(=O)C(=O)C1c1nc2ccccc2s1)c1ccccc1O (stereo unspecified) | > 100 | 
78 | O=C1c2c(ccc3c2CCC3)CC12Cc1ccccc1C2 | 40.9 | 
79 | CCCCCCCCCC(=O)OCC1OC(n2cc(F)c(=O)[nH]c2=O)C(NC(=O)OCc2ccccc2)C(OC(=O)CCCCCCCCC)C1O (stereo unspecified) | > 100 | 
80 | CC(CN(C)C)Oc1ccccc1NC1=C(Cl)C(=O)C(Nc2ccccc2OC(C)CN(C)C)=C(Cl)C1=O (stereo unspecified) | 3.86 | 1.76 µM
81 | CCCCNC(=O)C1C2CCC(O2)C1C(=O)O (stereo unspecified) | > 100 | 
82 | ONC1=Nc2ccccc2C(=S)N2CSCC12 (stereo unspecified) | > 100 | 
83 | COc1ccc2oc(C(=O)O)c3c2c1CCC3CCC(=O)O (stereo unspecified) | > 100 | 
84 | CCCCCCCCCNC(=O)/C=C/c1ccc(O)c(O)c1 | 52.5 | 24.3 µM
85 | CN=C(N)c1ccc(N=C(N)c2ccc(C(N)=Nc3ccc(C(N)=NC)cc3)cc2)cc1 | > 100 | 
86 | CC1(C(=O)Nc2ccc3ccccc3c2)CC2(C)CC(C)(C1)C(O)NC2=O (stereo unspecified) | > 100 | 
87 | CCN(CC)C1C(=O)NC1C#Cc1ccccc1 (stereo unspecified) | > 100 | 
88 | CCN(CC)c1ccc(/C=C/C(=O)c2cc(C(C)(C)C)c(O)c(C(C)(C)C)c2)cc1 | > 100 | 
89 | O=C(CCn1[nH]c(=O)c(Cl)c(Cl)c1=O)NNC(=O)C[n+]1ccccc1 | > 100 | 
90 | COc1ccc(/C=C2\CCC(CCN(C)C)(C3=CCCC3)C2=O)cc1Br (stereo unspecified) | 21.5 | 
91 | CC1(N)CCN(c2cnc(-c3cccc(Cl)c3Cl)c(N)n2)CC1 | > 100 | 5.37 µM
92 | N#CC(C#N)N=Nc1ccc(-c2nc3ccccc3o2)cc1 | 58.9 | 
93 | COc1ccc(NC(C)=O)c(C(O)CCNC(C)=O)c1 (stereo unspecified) | > 100 | 
94 | O=[N+]([O-])c1cc(C(F)(F)F)ccc1Sc1ccc(C(F)(F)F)cc1[N+](=O)[O-] | > 100 | 67.6 µM
95 | C[N+](C)(C)c1cc2c(nn1)Nc1ccccc1S2 | 50.7 | 
96 | CC1=C(/C=C/C(C)=C/C=C/C(C)=C/C(=O)O)C(C)(C)CCC1 | > 100 | 
97 | COc1cc2c(cc1OC)CC1c3cc(OC)c(OC)cc3CCN1CC2 (stereo unspecified) | > 100 | 
98 | C[C@@H](NC(=O)[C@H](NC(=O)[C@@H]1CCCN1C(=O)CNC(=O)c1ccc(N)cc1)C(C)(C)C)C(=O)NO (H-[4Abz]GP[dTle][dA]-{NHOH}) | > 100 | > 100 µM
99 | COc1ccc2c3c(c(C(=O)c4ccccc4)oc13)CCC2 | > 100 | 
